Measurements taken from PubChem BioAssay AID938 (National Center for Advancing Translational Sciences (NCATS), 2007).
The whole screen tested about 73,000 compounds, of which about 1,800 (2.5%) were called active. Inconclusive results, whose numbers are uncertain, are shown with a selection of clear calls. Calls come from the whole dose curve; as a rule, active = well fitted activation curve with a large enough effect; inconclusive = small, poorly fitted or top-dose-only effect; inactive = no such curve, though single readings can be large or run the other way. No potency is given beside an inconclusive call; the fits are too rough.
Potency is the fitted concentration of half-maximal effect; tags give direction and shape of the fitted curve.

Assay: qHTS Assay for Agonists of the Thyroid Stimulating Hormone Receptor: Activators of Intracellular cAMP Concentrations in Parental HEK 293; note: nearly all actives have a fitted effect of over 55% in size; for activation: % of control where 0% means no effect
Settings: parental HEK293 CNG cAMP sensor, membrane potential fluorescence; activation: at 57.1 µM (top of the series) unless noted
How it was run: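 Parental HEK 293 cells stably expressing a modified CNG channel (no TSHR) report cAMP rise as membrane depolarization. Membrane potential dye with 100 uM RO 20-1724 was loaded for 60 min at room temperature, then compound added for 30 min; fluorescence read at 590 nm.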
With `Cc1ccc(CCNC(=O)C2CCN(S(=O)(=O)N3CCCC3)CC2)cc1` the Potency was inconclusive [activator, partial curve]. In the case of `Cc1cc(NCc2ccc3c(c2)OCO3)n2nc(C)nc2n1`, the Potency was inconclusive [activator, single point]. With `CCN(CC)S(=O)(=O)c1cc(Br)ccc1OC` the Potency was inconclusive [activator, partial curve]. In the case of `Cc1ccc(C)c2[nH]c(=O)c(CN(Cc3nnnn3C3CCCCC3)CC3CCCO3)cc12` (centres undefined), the Potency was active: 25.1 µM. With `Clc1cccc2c1CN(C1=NCCN1)C2` the Potency was inconclusive [activator, partial curve]. For `COc1ccc(C(=O)Oc2c(CN3CCOCC3)cc(Cl)c3cccnc23)cc1`, the Potency was inconclusive [activator, single point]. With `COc1cc2c(cc1OC)C(CCN)=NCC2` the activation was inactive: 3.06% [at 11.4 µM]. For `COc1ccc(C(=O)N=c2nc3ccccn3s2)cc1`, the Potency was “inactive”. With `O=C(CSc1ncc(-c2ccccc2)n1-c1ccccc1)NCc1ccco1` the Potency was active: 31.6 µM. In the case of `Cc1ccc2cc(C(c3nnnn3CC3CCCO3)N3CCCC4(CCCCC4)C3)c(=O)[nH]c2c1` (centres undefined), the Potency was “inactive”. For `Cc1cc(C)n2nc(C(=O)OCC(=O)c3cc(C)n(C)c3C)nc2n1`, the Potency was inconclusive [activator, single point]. In the case of `CC(C)[C@@H](CC(=O)N[C@@H]1CCCC[C@H]1C(=O)N[C@H](CC(=O)N[C@@H](CCC(=O)O)CC(=O)O)Cc1c[nH]c2ccccc12)NC(=O)C[C@H](CO)NC(=O)[C@@H]1CNCC[C@H]1N`, the Potency was “inactive”. In the case of `COCCn1c(=O)cnc2cnc(Oc3cccc(Cl)c3)nc21`, the Potency was inconclusive [activator, single point]. With `COc1ccc(C(=O)COC(=O)c2ccc(OC)c(OC)c2)cc1OC` the Potency was inconclusive [activator, partial curve]. With `CC(=O)Nc1nnc(Cc2ccccc2)s1` the Potency was inconclusive [activator, single point]. With `COC(=O)c1c(NC(=O)CN2CCN(Cc3ccc4c(c3)OCO4)CC2)sc(C)c1C` the Potency was active: 1.58 µM. With `Cc1ccccc1-c1ccc2ncnc(N3CCN(C)CC3)c2c1` the Potency was inconclusive [activator, partial curve]. In the case of `Cc1ccc2nc(N3CCN(Cc4ccc(F)cc4)C3=O)c(C)cc2c1`, the Potency was inconclusive [activator, single point]. For `COc1ccc(-c2noc(CCC(=O)Nc3ccc4c(c3)OCCO4)n2)cc1`, the Potency was inconclusive [activator, partial curve]. With `NCCNC(=O)c1ccc(Cl)cc1` the Potency was inconclusive [activator, single point]. For `O=[N+]([O-])c1cc(Cl)cc2c1nc(NCCO)c1ccccc12`, the activation was inactive: 1.46% [at 11.4 µM]. In the case of `N#Cc1nc(Cc2ccccc2)oc1N1CCC(Cc2ccccc2)CC1`, the Potency was inconclusive [activator, partial curve]. In the case of `COC(=O)[C@@]1(Cc2ccc(OC)cc2)[C@H]2c3cc(C(=O)N4CCCC4)n(Cc4ccc(C)c(F)c4F)c3C[C@H]2CN1C(=O)c1ccccc1`, the Potency was inconclusive [activator, full curve]. In the case of `Cc1cc(C(=O)CSc2nnc(-c3ccco3)o2)c(C)n1Cc1ccco1`, the Potency was inconclusive [activator, single point]. With `CCN(CC)C(=O)c1sc2nc(-c3ccc(OC)cc3)cn2c1C` the Potency was active: 15.8 µM. With `CCn1c(N)nc2c1c(=O)n(C)c(=O)n2C` the Potency was inconclusive [activator, single point]. With `O=C(c1cc(-c2ccc(O)cc2)on1)N1CCCc2ccccc21` the Potency was inconclusive [activator, single point]. In the case of `Cc1csc(NC(=O)CCc2nc3ccccc3s2)n1`, the Potency was inconclusive [activator, single point]. For `COC(=O)N1CCc2cc(OC)c(OC)cc2C1Cc1ccc(OC)cc1` (centres undefined), the activation was inactive: -2.82% [at 11.4 µM]. With `C[C@@H]1O[C@@H](n2cc(F)c(=O)[nH]c2=O)[C@H](O)[C@@H]1O` the Potency was “inactive”. In the case of `O=S(=O)(Nc1ccc2nc(-c3ccco3)[nH]c2c1)c1ccccc1`, the Potency was inconclusive [activator, partial curve]. In the case of `COc1ccc(S(=O)(=O)N2CCCCC2)cc1C(C)C`, the Potency was active: 31.6 µM. In the case of `NC1=NC2(CCC(c3ccccc3)CC2)n2c(nc3ccccc32)N1` (centres undefined), the Potency was “inactive”. For `CN(C)c1ncc2nc(-c3cc(F)cc(F)c3)c(=O)n(C[C@H]3CCCO3)c2n1`, the Potency was inconclusive [activator, single point]. With `CN(Cc1ccccc1)Cc1nc2c(c(=O)n(C)c(=O)n2C)n1CCc1ccccc1` the Potency was active: 12.6 µM. In the case of `COc1cc2nc(C3CCC3)n(NC(=O)COc3ccccc3)c(=O)c2cc1OC`, the Potency was inconclusive [activator, single point]. In the case of `O=C(CN1CCC(C(=O)c2ccc(Cl)cc2)CC1)Nc1ccc2c(c1)OCCO2`, the Potency was inconclusive [activator, full curve]. In the case of `O=C(NCCC1=CCCCC1)c1ccc(Br)o1`, the Potency was inconclusive [activator, single point]. For `CC(C)(CC(=O)N1CCN(c2ccc(Cl)cc2)CC1)CC1=NS(=O)(=O)c2ccccc2N1`, the Potency was inconclusive [activator, partial curve, poor fit]. In the case of `COc1ccc(CNc2ncncc2-c2ccccc2OC)c(OC)c1`, the Potency was active: 25.1 µM. In the case of `Cc1ccc(-c2nn3nnnc3c3ccccc23)cc1`, the Potency was inconclusive [activator, partial curve]. For `CCCCNC(=O)CN1C(=O)C(CC)Oc2ccc(Cl)cc21` (centres undefined), the Potency was active: 10 µM. With `COCCn1nnnc1C(c1cc(OC)ccc1OC)N1CCc2ccccc2C1` (centres undefined) the Potency was inconclusive [activator, single point]. In the case of `O=c1c(CCc2ccccc2)nc2cnc(N3CCNCC3)nc2n1C1CC1`, the Potency was inconclusive [activator, full curve, poor fit].
